From PubChem BioAssay AID330 (DTP/NCI, 2004)
Where “and” joins values, the source holds several entries; their conditions need not be identical. Equal entries are not always repeated. This continues a long series; more values of the same kind are listed elsewhere. Toxic doses and inconclusive results are not listed. How the source made its calls: active means survival T/C of 150% or more; inactive means T/C below 125% in these data.

Test system: P388 leukemia ip, CD2F1 mice, survival T/C
Assay: NCI In Vivo Anticancer Drug Screen. Data for tumor model P388 Leukemia (intraperitoneal) in CD2F1 (CDF1) mice
Details: endpoint: median survival time, higher = longer survival
Procedure: The antitumor activity of compounds was measured in mice bearing transplantable tumors. Survival or tumor size were measured and the results are expressed as the measurement made in the treated group (T) divided by the measurement made in the vehicle treated control group (C). The tumor model used in this assay is P388 Leukemia (intraperitoneal) in CD2F1 (CDF1) mice

Measured: T/C

COc1cccc2c1C(=O)c1c(O)c3c(c(O)c1C2=O)C[C@@](O)(C(C)=O)C[C@@H]3OC1CC(N)C(O)C(C)O1 (some centres undefined)
inactive: dose: 0.12 mg/kg/injection, schedule: Q04DX003 (ip), vehicle: saline 92 % of control | dose: 0.5 mg/kg/injection, schedule: Q04DX003 (iv), vehicle: saline 97 % of control | dose: 0.75 mg/kg/injection, schedule: Q04DX003 (ip), vehicle: water 119 % of control | dose: 1.0 mg/kg/injection, schedule: Q04DX003 (ip), vehicle: water 117 % of control and 114 % of control and 118 % of control | dose: 1.17 mg/kg/injection, schedule: Q04DX003 (ip), vehicle: water 104 % of control | dose: 1.3 mg/kg/injection, schedule: Q01DX001 (ip), vehicle: water 110 % of control | dose: 1.5 mg/kg/injection, schedule: Q04DX003 (ip), vehicle: water 119 % of control | dose: 1.8 mg/kg/injection, schedule: Q01DX001 (ip), vehicle: water 110 % of control | dose: 2.0 mg/kg/injection, schedule: Q03HX008 (ip), vehicle: saline 90 % of control | dose: 2.0 mg/kg/injection, schedule: Q04DX003 (ip), vehicle: saline 118 % of control | dose: 2.0 mg/kg/injection, schedule: Q04DX003 (ip), vehicle: water 111 % of control and 118 % of control | dose: 2.34 mg/kg/injection, schedule: Q01DX009 (ip), vehicle: water 108 % of control | dose: 2.34 mg/kg/injection, schedule: Q04DX003 (ip), vehicle: water 104 % of control | dose: 2.4 mg/kg/injection, schedule: Q01DX001 (ip), vehicle: water 124 % of control | dose: 2.5 mg/kg/injection, schedule: Q01DX005 (ip), vehicle: saline 96 % of control | dose: 3.13 mg/kg/injection, schedule: Q01DX009 (ip), vehicle: water 90 % of control | dose: 3.2 mg/kg/injection, schedule: Q01DX001 (ip), vehicle: water 124 % of control | dose: 3.33 mg/kg/injection, schedule: Q01DX009 (ip), vehicle: water 83 % of control | dose: 4.0 mg/kg/injection, schedule: Q04DX003 (ip), vehicle: water 119 % of control and 122 % of control | dose: 4.68 mg/kg/injection, schedule: Q04DX003 (ip), vehicle: water 120 % of control | dose: 4.7 mg/kg/injection, schedule: Q04DX003 (ip), vehicle: water 114 % of control | dose: 5.0 mg/kg/injection, schedule: Q01DX009 (ip), vehicle: water 90 % of control | dose: 5.0 mg/kg/injection, schedule: Q03HX008 (ip), vehicle: saline 97 % of control | dose: 5.0 mg/kg/injection, schedule: Q04DX003 (ip), vehicle: saline 92 % of control | dose: 5.6 mg/kg/injection, schedule: Q01DX001 (ip), vehicle: water 124 % of control | dose: 6.0 mg/kg/injection, schedule: Q04DX003 (ip), vehicle: water 123 % of control | dose: 6.66 mg/kg/injection, schedule: Q01DX009 (ip), vehicle: water 60 % of control | dose: 8.0 mg/kg/injection, schedule: Q03HX024 (ip), vehicle: saline 89 % of control | dose: 8.0 mg/kg/injection, schedule: Q04DX003 (ip), vehicle: saline 114 % of control | dose: 8.0 mg/kg/injection, schedule: Q04DX003 (ip), vehicle: water 113 % of control | dose: 12.0 mg/kg/injection, schedule: Q04DX003 (ip), vehicle: water 122 % of control | dose: 12.5 mg/kg/injection, schedule: Q01DX001 (ip), vehicle: water 110 % of control | dose: 13.3 mg/kg/injection, schedule: Q01DX001 (ip), vehicle: saline 86 % of control | dose: 16.0 mg/kg/injection, schedule: Q04DX003 (ip), vehicle: saline 116 % of control and 105 % of control | dose: 16.0 mg/kg/injection, schedule: Q04DX003 (ip), vehicle: water 123 % of control and 110 % of control and 95 % of control | dose: 16.0 mg/kg/injection, schedule: Q04DX003 (iv), vehicle: saline 95 % of control | dose: 24.0 mg/kg/injection, schedule: Q04DX003 (ip), vehicle: water 96 % of control | dose: 25.0 mg/kg/injection, schedule: Q01DX001 (ip), vehicle: water 89 % of control | dose: 25.0 mg/kg/injection, schedule: Q04DX003 (ip), vehicle: saline 91 % of control | dose: 32.0 mg/kg/injection, schedule: Q04DX003 (ip), vehicle: saline 106 % of control and 89 % of control | dose: 32.0 mg/kg/injection, schedule: Q04DX003 (ip), vehicle: water 111 % of control | dose: 37.5 mg/kg/injection, schedule: Q04DX003 (ip), vehicle: water 104 % of control | dose: 75.0 mg/kg/injection, schedule: Q04DX003 (ip), vehicle: water 98 % of control
active: dose: 0.46 mg/kg/injection, schedule: Q01DX009 (ip), vehicle: water 163 % of control | dose: 0.5 mg/kg/injection, schedule: Q04DX003 (ip), vehicle: saline 178 % of control | dose: 0.63 mg/kg/injection, schedule: Q01DX005 (ip), vehicle: saline 176 % of control | dose: 0.65 mg/kg/injection, schedule: Q01DX009 (ip), vehicle: saline 177 % of control | dose: 0.69 mg/kg/injection, schedule: Q01DX009 (ip), vehicle: water 166 % of control | dose: 0.78 mg/kg/injection, schedule: Q01DX009 (ip), vehicle: saline 162 % of control | dose: 1.0 mg/kg/injection, schedule: Q04DX003 (ip), vehicle: saline 200 % of control | dose: 1.04 mg/kg/injection, schedule: Q01DX009 (ip), vehicle: water 166 % of control | dose: 1.25 mg/kg/injection, schedule: Q01DX001 (ip), vehicle: saline 178 % of control | dose: 1.56 mg/kg/injection, schedule: Q01DX009 (ip), vehicle: saline 182 % of control | dose: 1.56 mg/kg/injection, schedule: Q01DX009 (ip), vehicle: water 173 % of control and 194 % of control | dose: 1.56 mg/kg/injection, schedule: Q04DX003 (ip), vehicle: saline 187 % of control | dose: 3.13 mg/kg/injection, schedule: Q04DX003 (ip), vehicle: saline 197 % of control | dose: 3.5 mg/kg/injection, schedule: Q01DX001 (ip), vehicle: saline 177 % of control | dose: 4.0 mg/kg/injection, schedule: Q03HX024 (ip), vehicle: saline 190 % of control | dose: 6.25 mg/kg/injection, schedule: Q01DX009 (ip), vehicle: water 155 % of control | dose: 6.25 mg/kg/injection, schedule: Q04DX003 (ip), vehicle: saline 185 % of control | dose: 12.5 mg/kg/injection, schedule: Q01DX009 (ip), vehicle: water 173 % of control | dose: 18.7 mg/kg/injection, schedule: Q04DX003 (ip), vehicle: water 157 % of control | dose: 25.0 mg/kg/injection, schedule: Q01DX009 (ip), vehicle: water 231 % of control | dose: 31.3 micrograms/kg/injection, schedule: Q03HX024 (ip), vehicle: saline 175 % of control
